{
  "source": "patent US20170290925A1",
  "about": "“Conjugates And Conjugating Reagents” (priority 2014, published 2017)",
  "molecules": {"B1": {"name": "conjugate 29: Brentuximab-drug conjugate prepared from conjugation reagent 13 (conjugate, chains of the INN, looked up)", "heavy": "QIQLQQSGPEVVKPGASVKISCKASGYTFTDYYITWVKQKPGQGLEWIGWIYPGSGNTKYNEKFKGKATLTVDTSSSTAFMQLSSLTSEDTAVYFCANYGNYWFAYWGQGTQVTVSA[human IgG1 constant region not shown]", "light": "DIVLTQSPASLAVSLGQRATISCKASQSVDFDGDSYMNWYQQKPGQPPKVLIYAASNLESGIPARFSGSGSGTDFTLNIHPVEEEDAATYYCQQSNEDPWTFGGGTKLEIKRTVAAPSVFIFPPSDEQLKSGTASVVCLLNNFYPREAKVQWKVDNALQSGNSQESVTEQDSKDSTYSLSSTLTLSKADYEKHKVYACEVTHQGLSSPVTKSFNRGEC", "modifications": "drug conjugate from reagent 13"}},
  "test_system": "Karpas-299 cells (T-anaplastic large cell lymphoma, ALCL) xenograft",
  "test": "Karpas-299 mouse xenograft study (Example 16)",
  "type": "in vivo, CB17-SCID mice",
  "details": "single i.v. injection at 1 mg/kg",
  "method": "Conjugates 28 and 29 were prepared from conjugation reagent 21 from Example 12 and conjugation reagent 13 from Example 10, respectively. Conjugations were carried out as described in Example 5.\nHealthy female CB17-SCID mice (CBySmn.CB17-Prkdcscid/J, Charles River Laboratories) with an average body weight of 18.9 g were used for cell inoculation (Day 0). 24 to 72 hours prior to tumour cell injection, the mice were y-irradiated (1.44 Gy, ^60Co). The animals were maintained in SPF health status according to the FELASA guidelines in housing rooms under controlled environmental conditions.\nTumours were induced by subcutaneous injection of 10^7 Karpas-299 cells (T-anaplastic large cell lymphoma, ALCL) in 200 μL of RPMI 1640 into the right flank. Tumours were measured twice a week with calipers, and the volume was estimated using the formula: […]\nFifteen days after tumour implantation (Day 15), the animals were randomized into groups of eight mice using Vivo manager® software (169 mm^3 mean tumor volume) and treatment was initiated. The animals from the vehicle group received a single intravenous (i.v.) injection of PBS. The treated groups were dosed with a single i.v. injection of ADC at 1 mg/kg.\nTreatment tolerability was assessed by bi-weekly body weight measurement and daily observation for clinical signs of treatment-related side effects. […]",
  "data": [
    {"molecule": "B1", "values": [
      {"measurement": "Effect on tumour volume", "value": "complete reduction in tumour volume for the duration of the study"}
    ]}
  ]
}
